Experimental data reported in paper PMC4336329 (PLoS ONE, 2015).
Hit rate of the full screen: of about 310,000 compounds, about 2,200 (0.71%) showed an effect of 50% or more. Effects have a minus sign here. This is one part of the list.

target: human ether-à-go-go-related gene (hERG) potassium channel (human, UniProt Q12809); assay: primary screen, population patch clamp on CHO cells stably expressing hERG
Sequence (Q12809 whole entry, looked up): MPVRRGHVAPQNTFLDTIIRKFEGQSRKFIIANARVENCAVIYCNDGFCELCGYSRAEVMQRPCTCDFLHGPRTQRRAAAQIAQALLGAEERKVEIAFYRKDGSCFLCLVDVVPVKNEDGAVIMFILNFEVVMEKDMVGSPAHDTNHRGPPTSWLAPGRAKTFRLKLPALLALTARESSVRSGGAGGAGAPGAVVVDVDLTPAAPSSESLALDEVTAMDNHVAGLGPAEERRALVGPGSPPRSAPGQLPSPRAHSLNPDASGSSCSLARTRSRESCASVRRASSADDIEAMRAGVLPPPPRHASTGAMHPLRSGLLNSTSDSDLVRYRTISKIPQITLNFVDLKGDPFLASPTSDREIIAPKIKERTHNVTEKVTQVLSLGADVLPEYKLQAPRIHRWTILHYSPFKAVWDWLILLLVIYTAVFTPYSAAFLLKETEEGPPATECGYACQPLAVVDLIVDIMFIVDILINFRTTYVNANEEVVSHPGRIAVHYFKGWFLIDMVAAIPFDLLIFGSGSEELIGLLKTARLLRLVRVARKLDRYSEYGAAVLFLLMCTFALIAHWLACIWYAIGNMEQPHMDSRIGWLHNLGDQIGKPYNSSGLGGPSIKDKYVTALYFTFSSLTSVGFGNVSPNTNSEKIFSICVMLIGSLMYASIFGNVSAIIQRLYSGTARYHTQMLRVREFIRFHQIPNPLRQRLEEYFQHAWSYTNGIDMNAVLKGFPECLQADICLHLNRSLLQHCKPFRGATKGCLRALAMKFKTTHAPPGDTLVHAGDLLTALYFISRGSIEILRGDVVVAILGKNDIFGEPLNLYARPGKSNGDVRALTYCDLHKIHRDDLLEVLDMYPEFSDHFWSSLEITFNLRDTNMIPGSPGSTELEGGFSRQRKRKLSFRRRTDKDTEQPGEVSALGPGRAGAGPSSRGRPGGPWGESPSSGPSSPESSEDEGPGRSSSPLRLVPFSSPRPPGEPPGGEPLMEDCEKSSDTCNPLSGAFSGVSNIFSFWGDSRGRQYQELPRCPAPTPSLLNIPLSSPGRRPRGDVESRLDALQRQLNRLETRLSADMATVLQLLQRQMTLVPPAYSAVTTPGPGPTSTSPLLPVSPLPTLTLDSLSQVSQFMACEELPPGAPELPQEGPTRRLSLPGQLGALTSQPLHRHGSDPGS

Compared with `COc1ccc(CNC(=O)[C@H](C)NC(=O)C2CC(=O)N(c3ccc4c(c3)OCO4)C2)cc1` (stereo partly shown), `COc1cccc(NC(=O)CNc2cc(S(=O)(=O)N3CCOCC3)ccc2N2CCCC2)c1` is lower in “hERG current change (%, negative = inhibition) at 1uM” value: 15.9% for the first, 13% for the second.

Compared with `O=C1Nc2ccccc2/C1=C/c1cnc(-c2ccccc2)[nH]1`, `COc1ccccc1-n1c(O)c(C=Nc2c(C)n(C)n(-c3ccccc3)c2=O)c(=O)[nH]c1=O` is lower in “hERG current change (%, negative = inhibition) at 1uM” value: 20.1% for the first, 6.76% for the second.

Compared with `COc1cc2c(cc1OC)CN(c1ccc3ccccc3n1)CC2`, `COc1ccc(CCN(C)CC(O)COc2ccc(C(C)=O)cc2OC)cc1OC` (stereo not shown) is lower in “hERG current change (%, negative = inhibition) at 1uM” value: 15.9% for the first, 8.67% for the second.

Compared with `CC(C)CCn1cnc2c(cnn2-c2ccc(Cl)cc2)c1=O`, `Cc1nnc2sc(SCc3ccc(Cl)cc3)nn2c1=O` is higher in “hERG current change (%, negative = inhibition) at 1uM” value: 6.99% for the first, 10.8% for the second.

First: Cc1ccc(-c2csc(NC(=O)c3ccc(S(=O)(=O)N4CCc5ccccc54)cc3)n2)cc1
Second: CCc1ccc(Cn2nnc(C(=O)Nc3cccc(C)c3)c2N)cc1
The “hERG current change (%, negative = inhibition) at 1uM” value of the first is higher: 14.3% for the first, 8.33% for the second.

Compared with `O=C(NNC(=O)c1sccc1-n1cccc1)c1cccc(Cl)c1`, `Cc1ccc(NC(=O)CCC(=O)c2cccs2)cc1F` is lower in “hERG current change (%, negative = inhibition) at 1uM” value: 6.74% for the first, 5.24% for the second.

First: Cc1ccsc1C=Nc1c(C)n(C)n(-c2ccccc2)c1=O
Second: O=C(Nc1ccc(Nc2ccccc2)cc1)C(Cl)(Cl)Cl
The “hERG current change (%, negative = inhibition) at 1uM” value of the first is higher: 12.9% for the first, 7.95% for the second.

Going from `O=C(CN1C(=O)c2ccccc2S1(=O)=O)NCc1cccnc1` to `CCCN(C(=O)Cc1csc(-c2ccccc2)n1)C1CCS(=O)(=O)C1` (stereo not shown), the “hERG current change (%, negative = inhibition) at 1uM” value falls from 4.24% to 0.515%.

First: CCOC(=O)c1cc(S(=O)(=O)N2CCN(C3CCCCC3)CC2)cn1C
Second: CCOC(=O)N1CCC(Nc2c(NCCCOC)c(=O)c2=O)CC1
The “hERG current change (%, negative = inhibition) at 1uM” value of the first is higher: 11.3% for the first, 4.31% for the second.

First: COc1ccc(-c2nc3cccc(C)n3c2NCC2CCCO2)cc1O.Cl (stereo not shown)
Second: Cc1cccc(Nc2nc(Cl)ncc2F)c1C
The “hERG current change (%, negative = inhibition) at 1uM” value of the first is lower: -6.9% for the first, 7.49% for the second.

Going from `CCCCN(C(=O)Nc1ccccc1)C1CCS(=O)(=O)C1` (stereo not shown) to `COc1ccccc1CNC(=O)CC12CC3CC(CC(Br)(C3)C1)C2`, the “hERG current change (%, negative = inhibition) at 1uM” value rises from -0.108% to 12.8%.

First: Cn1c(SCC(=O)NC2CCCC2)nnc1-c1cccs1
Second: CCCCNCCOCCOc1ccc(C)cc1[N+](=O)[O-].O=C(O)C(=O)O
The “hERG current change (%, negative = inhibition) at 1uM” value of the first is higher: 13% for the first, 2.88% for the second.

In the case of `O=C1CN(C(=O)N[C@@H](Cc2ccccc2)C(=O)N[C@@H](Cc2ccccc2)C(=O)O)c2ccccc2N1`, the “hERG current change (%, negative = inhibition) at 1uM” value is reported as 6.94%.
